Measurements from publication PMC12136788.
The other results are listed elsewhere or left out.

T1: UNK ZnF1-3 (human, UniProt Q9C0B0 31-174)
T1 sequence: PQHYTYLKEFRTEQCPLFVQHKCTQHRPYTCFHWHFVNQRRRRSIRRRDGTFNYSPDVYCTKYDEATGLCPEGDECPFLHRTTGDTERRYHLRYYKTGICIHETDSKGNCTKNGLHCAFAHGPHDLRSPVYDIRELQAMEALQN

B1: 60194225_60194345_1452_CDS_ENSG00000139970_ENST00000267484|human|control|control (ssRNA)
RNA: GGGAGUUCUACAGUCCGACGAUCCGGUCCGGACCUGGCCUUGACCUCGGGCCUGUCGGCCAGCUGGCCCACCGGCCGUGGGUUCUCGGCGGUUUCAUACGAUAAUCCCUUUGCUUCUUUGAUGGCGGUGAUCAGCUCAUCCUCCAACAGAGGAUUGAGCAUCA
B2: chr10:33190432:33190433:-_ENSG00000150093_ENST00000302278|hu_mus|hu_hu_hu_mus_True|28_108 (ssRNA)
RNA: GGGAGUUCUACAGUCCGACGAUCUACAUUUUCAAAACCUGCAUGUGAAUAAAACCCUGGCCACAGAGCCCCAAAACUACCCUACUGUGACUAAGAUGCUGCUGCUGUUGCAUUCAGGUUGCAAAAUCCGCCUGAGUAGGAUUCCAACAGAGGAUUGAGCAUCA
B3: 24094108_24095024_1607_3pUTR_ENSMUSG00000038181_ENSMUST00000088295|mouse|control|control (ssRNA)
RNA: GGGAGUUCUACAGUCCGACGAUCCUACUGUACGGUUAACCGCGACGGCCAGGGUGGACAGUGUGGCUCGAGAAGUCAGGACAGCCACCAGCAGGCGCUCACGAGAGCCCAGCUCUGUCUGUAUAUACCGAGUCCUGAGCACCUCAACAGAGGAUUGAGCAUCA
B4: chr7:32526834:32526835:-_ENSG00000106355_ENST00000409292|hu_hu|FALSE|FALSE (ssRNA)
RNA: GGGAGUUCUACAGUCCGACGAUCUAGAAAGUGGGAAAAAAAAUUCCAUUUUCUUGUCAUUAUAAGCCAAAACAAAAUCUAGUGUAAGUCAAGGAAACUCAUUCACACUUCAGGUCCUUCUCCUCCAGGAACCAGCAUUGUUAUCAACAGAGGAUUGAGCAUCA
B5: 46963473_46964311_1556_3pUTR_ENSMUSG00000025041_ENSMUST00000168536|mouse|control|control (ssRNA)
RNA: GGGAGUUCUACAGUCCGACGAUCGUGGCGAGAGGGGACUCCAUCUCAUUGAUAUCCACAUGCGUGUGUUCCACCGUUGACUCGUGCGGCAUCAGGACAUGGGCAGCUCUGAAGAGGUAGCUGAAUGGGUAGUACAGCAGGUUGCAACAGAGGAUUGAGCAUCA
B6: chr3:3214544:3214545:-_ENSG00000113851_ENST00000231948|hu_hu|FALSE|FALSE (ssRNA)
RNA: GGGAGUUCUACAGUCCGACGAUCUUUGAACCUUUGUCUUCCAAUUGCUUUCACUUUCACUAUCUCAAUUCCAAAAUCCUGUUCUUCUCGAUAGGCAUAUAUCUCUGCUGUUGUUCCAAACUGUGCUUCCCUUUCCUGUACAUUCAACAGAGGAUUGAGCAUCA
B7: 151032446_151032566_2273_5pUTR_ENSG00000213190_ENST00000368921|human|control|control (ssRNA)
RNA: GGGAGUUCUACAGUCCGACGAUCUUAAGGACUUUAGGUUACAAAGUAUUUUUAAGAAUCAGAGUAUUUUUCCACCCCUUCUCCCAAUCCCUGCUCCUCCAGACUCGCCUCUCUACCCUCACAAUGGGUAAAUAAACCUAGUCCCAACAGAGGAUUGAGCAUCA
B8: chr17:62499352:62499353:-_ENSG00000108654_ENST00000581693|hu_mus|FALSE|FALSE (ssRNA)
RNA: GGGAGUUCUACAGUCCGACGAUCUCUUAUUUGAUCCACAAUUUUCCUUAUCUGGGGUUCAAAUCCCAUAUCAAGCAUCCUAUCAGCUUCAUCAAGGACAAGGUAAGUUGUUCUUCUCAGAUUGGUUUUCCCACACUCUAAAAACAACAGAGGAUUGAGCAUCA
B9: 69561058_69561178_1617_CDS_ENSG00000138604_ENST00000261858|human|control|control (ssRNA)
RNA: GGGAGUUCUACAGUCCGACGAUCCUGCUCAGAUAGAAACUUAUAAGGGGCUGUUGCCCUUAAAGCUGAAUUGAGGAAUAUAUGGUCUUUUGUUAACAGAUAGGCCCUGACUAAUGUAGAAAUGGCUUGCCCUUGGGCCAUGGCCAACAGAGGAUUGAGCAUCA
B10: 24893896_24894016_431_3pUTR_ENSMUSG00000019132_ENSMUST00000019276|mouse|control|control (ssRNA)
RNA: GGGAGUUCUACAGUCCGACGAUCGACACUGGAUCACUCGGGUUCUCACUCAUUUCAAUGUGGAAACAAUUCCCGCCCGGGUAGAGGAGGCGGGAAGAGAGUUAAGUAGGAAGGAUCAGUUGGGAGGAGGGGAAAAGAAGAGAACAACAGAGGAUUGAGCAUCA
B11: chr17:55757426:55757427:+_ENSG00000153944_ENST00000284073|hu_mus|FALSE|FALSE (ssRNA)
RNA: GGGAGUUCUACAGUCCGACGAUCAUAGAGUCUAUGCCCACCUCCCGCUCCGCGUAUCACAACUUCGAUUCAGUGUGUGCUAAAGUCCCAGAUGAAAAGUCUUACAGUCUCAGAACUGGUACCAAAAAUGGAGAGUAACAUCACCAACAGAGGAUUGAGCAUCA
B12: chr5:37310712:37310713:-_ENSG00000113569_ENST00000381843|hu_hu|motif|central (ssRNA)
RNA: GGGAGUUCUACAGUCCGACGAUCACAAAUUGCAUCAUCAGUGCUAUAUAGAAGUGGGCAGAUAUCCUGUAAAUGUAAACGGAUGCCAUCAACAGCGGCAUUAUCUCUGAUGUAGCAGUUGAUAAGAGAAGCAAUUAAUGCCCCCAACAGAGGAUUGAGCAUCA
B13: chr12:57037365:57037366:-_ENSG00000110955_ENST00000262030|hu_hu|FALSE|FALSE (ssRNA)
RNA: GGGAGUUCUACAGUCCGACGAUCCUUGCCAACUCCAGCACCACCAAAAAGCCCAAUUUUGCCACCCUUGGCAUAGGGAGCUAGCAGAUCGACAACCUUGAUACCAGUCACCAGAAUUUCCUGCUCAACACUCAUUUCCAUGAACAACAGAGGAUUGAGCAUCA
B14: chr8:95500983:95500984:-_ENSG00000164944_ENST00000437199|hu_hu|hu_hu_hu_mus_True|38_48 (ssRNA)
RNA: GGGAGUUCUACAGUCCGACGAUCAGAACACAUCUAUCGAGUAAAGGACCGUACAUGACGGCCUCUACCACUGCCUCCACUAACAAAACUUUCCUCUUGAGCCUCCAUGCCGCUAUUUGUACUAGCCCAGGACGGUCCCAGGCCCAACAGAGGAUUGAGCAUCA

Molecular target: T1, UNK ZnF1-3
Test: nsRBNS (natural sequence RNA bind-n-seq); RBNS binding buffer (assumed for nsRBNS): 25 mM Tris pH 7.5, 150 mM KCl, 3 mM MgCl2, 0.01% Triton X-100, 500 ug/ml BSA, 20 U/ml SUPERase-In, 4 C; UNK is unkempt and MSI1 is Musashi-1; names of the RNAs are library labels; protein concentration not given here; high values mean tight binding

Row | Binder | binding signal [enrichment R]
1 | B1 | 0.645
2 | B2 | 1.74
3 | B3 | 0.751
4 | B4 | 1.06
5 | B5 | 1.51
6 | B6 | 0.436
7 | B7 | 1.07
8 | B8 | 0.599
9 | B9 | 1.14
10 | B10 | 1.89
11 | B11 | 1.66
12 | B12 | 1.65
13 | B13 | 1.53
14 | B14 | 1.03
